Test results taken from PubChem BioAssay AID588591 (National Center for Advancing Translational Sciences (NCATS), 2011).
The whole screen tested about 390,000 compounds, of which about 4,700 (1.2%) were called active. Inconclusive means that the source gave no clear call. Such entries were picked first, then a sample of the others. Calls follow the shape of the dose curve; as a rule, active = well fitted inhibition curve with a large enough effect; inconclusive = small, poorly fitted or top-dose-only effect, or another doubt; inactive = no such curve, though single readings can be large or run the other way. Potencies of inconclusive entries are doubtful fits and often do not repeat.

Target: DNA polymerase eta (Homo sapiens) (UniProt Q9Y253)
Assay: qHTS for Inhibitors of Polymerase Eta
Settings: recombinant Pol eta, fluorescent DNA replication assay; series mostly up to 114 µM; activity change, negative = inhibition: at the top concentration
Summary of the method: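 Pol eta (10 nM) was preincubated with compounds for 15 min at room temperature, after which fluorescent replication substrate (50 nM final) was added to start the reaction. Fluorescence was read kinetically at 0 and 10 min.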
% is scaled to controls: 0 for no effect and ±100 for the full control effect; potency is read from the fitted curve at half-maximal effect; tags tell the direction and shape of the fitted curve.

UniProt Q9Y253, sequence (Q9Y253 whole entry, looked up): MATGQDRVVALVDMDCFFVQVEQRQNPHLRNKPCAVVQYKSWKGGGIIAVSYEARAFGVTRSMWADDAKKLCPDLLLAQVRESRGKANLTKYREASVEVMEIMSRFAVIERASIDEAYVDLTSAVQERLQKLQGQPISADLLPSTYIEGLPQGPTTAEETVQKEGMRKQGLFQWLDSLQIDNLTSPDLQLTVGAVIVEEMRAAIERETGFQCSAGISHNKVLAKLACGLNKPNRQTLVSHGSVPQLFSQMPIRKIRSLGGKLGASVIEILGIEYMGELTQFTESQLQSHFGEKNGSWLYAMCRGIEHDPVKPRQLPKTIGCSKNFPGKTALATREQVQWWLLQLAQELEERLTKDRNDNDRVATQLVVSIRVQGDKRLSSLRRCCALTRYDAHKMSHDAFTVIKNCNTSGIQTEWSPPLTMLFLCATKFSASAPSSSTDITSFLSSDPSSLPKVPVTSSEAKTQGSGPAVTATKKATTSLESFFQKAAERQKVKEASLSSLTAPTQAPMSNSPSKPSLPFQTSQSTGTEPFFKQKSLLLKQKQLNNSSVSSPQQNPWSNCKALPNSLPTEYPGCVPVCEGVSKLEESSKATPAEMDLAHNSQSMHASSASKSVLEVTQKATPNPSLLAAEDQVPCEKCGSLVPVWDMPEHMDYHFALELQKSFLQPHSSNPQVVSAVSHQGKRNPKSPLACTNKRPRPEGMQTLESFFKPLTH

For `CCN(CC)c1nc(C)c(C(=S)Nc2cc([N+](=O)[O-])ccc2Cl)s1`, which “activity change, negative = inhibition” value is on record?
The value was inactive: -18.4%.

How did the Potency turn out when `CSCc1cccc(C(=O)OC(C)C(=O)Nc2c(C)n(C)n(-c3ccccc3)c2=O)c1` (stereo not drawn) was run?
The Potency was inconclusive: 100 µM [inhibitor, partial curve, poor fit].

Which Potency does the source give for `Cc1cc(C)cc(OCc2cc(=O)n3c(-c4ccccc4)csc3n2)c1` here?
Its Potency is inconclusive: 50.1 µM [inhibitor, partial curve, poor fit].

Which Potency does the source give for `COc1cc2sc3cc(NCC[C@@H]4CCCN4C)ccc3c(=O)c2cc1OC` here?
Its Potency is inconclusive: 50.1 µM [inhibitor, partial curve, poor fit].

How did the “activity change, negative = inhibition” value turn out when `CC(C)C(=O)Nc1ccc(-c2nnc(-c3ccccc3)o2)cc1` was run?
The value was inactive: 1.34%.

With `O=c1[nH]c(/C=C/c2ccccc2F)nc2ccccc12` as the compound, how does the Potency read?
Its Potency is inconclusive: 15.8 µM [inhibitor, full curve, poor fit].

How did the Potency turn out when `COCCCNC(=O)c1ccc2c3c(onc13)-c1ccccc1C2=O` was run?
Its Potency is active: 44.7 µM.

Which Potency does the source give for `O=C(CCS(=O)(=O)c1ccccc1)Nc1nc2cc3c(cc2s1)OCCO3` here?
The Potency was inconclusive: 0.708 µM [inhibitor, partial curve, poor fit].

Which “activity change, negative = inhibition” value does the source give for `CCC(=O)Nc1cccc(-c2nc3ccc(C)cc3o2)c1` here?
The value was inactive: 0.0903%.

For `CN(C)c1ccc(N=Nc2ccc(S(N)(=O)=O)cc2)cc1`, which Potency is on record?
Its Potency is inconclusive: 44.7 µM [inhibitor, partial curve, poor fit].

For `O=C(O)c1ccc(N/N=C/c2cccc(F)c2)cc1`, which Potency is on record?
Its Potency is inconclusive: 35.5 µM [inhibitor, partial curve, poor fit].

Which Potency does the source give for `COc1ccc(OC)c(C=NNC(=O)NN=Cc2cc(OC)ccc2OC)c1` here?
The Potency was inconclusive: 22.4 µM [inhibitor, partial curve, poor fit].

Which Potency does the source give for `O=C(O)c1cc(NC(=O)c2ccc([N+](=O)[O-])cc2)cc(NC(=O)c2ccc([N+](=O)[O-])cc2)c1` here?
The Potency was inconclusive: 50.1 µM [inhibitor, partial curve, poor fit].

How did the “activity change, negative = inhibition” value turn out when `CCOc1ccccc1NC(=O)CN1CCCCCC1` was run?
Its value is inactive: -19.3%.

How did the Potency turn out when `C[C@@H]1NC(=O)N[C@@H]1CCCCCC(=O)O` was run?
The Potency was inconclusive: 100 µM [inhibitor, partial curve, poor fit].

How did the Potency turn out when `CC(=O)Nc1nc(-c2ccc(Cl)cc2)nc(C)c1C(C)=O` was run?
The Potency was inconclusive: 22.4 µM [inhibitor, full curve, poor fit].

With `O=C(O)c1ccc(N/N=C/c2cn(-c3ccccc3)nc2-c2cccs2)cc1` as the compound, how does the Potency read?
Its Potency is inconclusive: 56.2 µM [inhibitor, partial curve, poor fit].

With `N=C1S/C(=C\c2ccco2)C(=O)N1c1ccc2c(c1)OCO2` as the compound, how does the Potency read?
The Potency was active: 35.5 µM.
